Test results from the RNAGym collection of RNA variant scans (doi:10.1073/pnas.2313332121).
Variants at the floor of the assay are shown more often than the library holds them.

B1: TPR 5TU (parent)
chain: GGAUCUUCUCGAUCUAACAAAAAAGACAAAUCUGCCACAAAGCUUGAGAGCAUCUUCGGAUGCAGAGGCGGCAGCCUUCGGUGGCGCGAUAGCGCCAACGUUCUCAACUAUGACACGCAAAACGCGUGCUCCGUUGAAUGGAGUUUAUCAUG

Variants of: B1
Test: polymerase ribozyme fitness, log enrichment relative to wild type (log ratio); higher = more active; in vitro selection for triplet polymerase activity
Summary of the method: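 Only genotypes with ≥10 input reads and ≥1 read per output were kept after Illumina sequencing of input and output libraries. These libraries were PCR-built, transcribed mutants of each subunit of a heterodimeric triplet polymerase ribozyme, each put through one triplicate in vitro selection round with frozen incubation at −7 °C, gel excision of extended constructs, streptavidin-bead capture and RT-PCR. Fitness is a logarithmic ratio of genotype enrichment to wild-type enrichment, from inverse-variance-weighted replicate averages, with the logarithm in base 2.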

C10A A30U U77A G92C C118G U146C and C10A A37U C79A C85U C87A cannot be ordered by “polymerase ribozyme fitness (log ratio)” value: ≤ -4.2 for the first, ≤ -4.2 for the second.

C10A A41C A47C U55A C93A C95U A150C and C10A A41G C85U C149U cannot be ordered by “polymerase ribozyme fitness (log ratio)” value: ≤ -4.2 for the first, ≤ -4.2 for the second.

C10A A47C A49U U90G G92A G126A U144G and C10A A47U A49C G68A U78C A91G C95A U148C cannot be ordered by “polymerase ribozyme fitness (log ratio)” value: ≤ -4.2 for the first, ≤ -4.2 for the second.

C10A A49C G84U A122G U139A and C10A A52C G74A C85A G143U cannot be ordered by “polymerase ribozyme fitness (log ratio)” value: ≤ -4.2 for the first, ≤ -4.2 for the second.

C10A A52G U55A G59A C85A A89U and C10A A60G C93G cannot be ordered by “polymerase ribozyme fitness (log ratio)” value: ≤ -4.2 for the first, ≤ -4.2 for the second.

Compared with C10A A91U U101G, C10A C14G A20G G50C G94A C96U C116G A119U is lower in “polymerase ribozyme fitness (log ratio)” value: -4.05 for the first, ≤ -4.2 for the second.

C10A C14G U15C C93A C95U U109G A119G C131A and C10A C14U C36U G42A U55G A73U G86U cannot be ordered by “polymerase ribozyme fitness (log ratio)” value: ≤ -4.2 for the first, ≤ -4.2 for the second.

C10A C14U G67A U77A G80U G143C and C10A C18A A22U A29G A41U U45G G50U C57U G74A G88C A106U cannot be ordered by “polymerase ribozyme fitness (log ratio)” value: ≤ -4.2 for the first, ≤ -4.2 for the second.

C10A C32A A91G C103G and C10A C32G C51U U55C A64C C105U C114U G124U cannot be ordered by “polymerase ribozyme fitness (log ratio)” value: ≤ -4.2 for the first, ≤ -4.2 for the second.

C10A C32G U55G C72U C95G C96A A142G and C10A C36A C43U G86A C105G G141C cannot be ordered by “polymerase ribozyme fitness (log ratio)” value: ≤ -4.2 for the first, ≤ -4.2 for the second.

C10A C36U C57G C69A C87U and C10A C38U G68C C87U C105U A115G G140A cannot be ordered by “polymerase ribozyme fitness (log ratio)” value: ≤ -4.2 for the first, ≤ -4.2 for the second.

C10A C54G A73U A120U and C10A C54G C95A cannot be ordered by “polymerase ribozyme fitness (log ratio)” value: ≤ -4.2 for the first, ≤ -4.2 for the second.

C10A C54G G80C G81A C85U C129A U135C and C10A C54U G67C C85A A107U cannot be ordered by “polymerase ribozyme fitness (log ratio)” value: ≤ -4.2 for the first, ≤ -4.2 for the second.

C10A C63U G92C U101G and C10A C76G A138C cannot be ordered by “polymerase ribozyme fitness (log ratio)” value: ≤ -4.2 for the first, ≤ -4.2 for the second.

C10A C85G G100U U102A C105G A147C and C10A C93G cannot be ordered by “polymerase ribozyme fitness (log ratio)” value: ≤ -4.2 for the first, ≤ -4.2 for the second.

C10A C118U U130G and C10A G11C A26G U55A G59C G81U G88A C118U A121U G126U G133C G141U U148A cannot be ordered by “polymerase ribozyme fitness (log ratio)” value: ≤ -4.2 for the first, ≤ -4.2 for the second.

C10A G11U C14G A40G G88A G94C A98G A113C and C10A G11U G50A U148G cannot be ordered by “polymerase ribozyme fitness (log ratio)” value: ≤ -4.2 for the first, ≤ -4.2 for the second.

C10A G25C A30G U31A G74C G83U C118G G143C and C10A G42A C54U A89U G94A U101A C105A C131U U146C cannot be ordered by “polymerase ribozyme fitness (log ratio)” value: ≤ -4.2 for the first, ≤ -4.2 for the second.

C10A G42U A60U C75G C93U A98C U104G U144G and C10A G46A G62U A64U cannot be ordered by “polymerase ribozyme fitness (log ratio)” value: ≤ -4.2 for the first, ≤ -4.2 for the second.

C10A G46A G86U U90G C93G U104A A106G U144A and C10A G46C G83A U90A G94U C99G C129U cannot be ordered by “polymerase ribozyme fitness (log ratio)” value: ≤ -4.2 for the first, ≤ -4.2 for the second.

C10A G50C U53C A73G C85A C87G and C10A G58C A66U G80A C95U C96U U144G cannot be ordered by “polymerase ribozyme fitness (log ratio)” value: ≤ -4.2 for the first, ≤ -4.2 for the second.

C10A G59A A91U U111A U127C A138U A150G and C10A G68A A91C G92U U111G C132G U148A cannot be ordered by “polymerase ribozyme fitness (log ratio)” value: ≤ -4.2 for the first, ≤ -4.2 for the second.

C10A G70A A113U U135G and C10A G70C U146C cannot be ordered by “polymerase ribozyme fitness (log ratio)” value: ≤ -4.2 for the first, ≤ -4.2 for the second.

C10A G88C U104G G128A A137U A138G G140U and C10A G92C C103A U111A cannot be ordered by “polymerase ribozyme fitness (log ratio)” value: ≤ -4.2 for the first, ≤ -4.2 for the second.

C10A G124A and C10A U13C C18U U55G U56A G94A A138G U151G cannot be ordered by “polymerase ribozyme fitness (log ratio)” value: ≤ -4.2 for the first, ≤ -4.2 for the second.

C10A U13C C43U G65C C96A G117A A121G G141C and C10A U13G A17U A41G G50C G100U U145A cannot be ordered by “polymerase ribozyme fitness (log ratio)” value: ≤ -4.2 for the first, ≤ -4.2 for the second.

C10A U13G A28U A40G U55G U77A C85G A120C and C10A U13G C14U C76G C79U A138U G141U cannot be ordered by “polymerase ribozyme fitness (log ratio)” value: ≤ -4.2 for the first, ≤ -4.2 for the second.

C10A U15G A17G C75G C99U A113C G133C U134G G141C and C10A U44A G50A G80C G83U C132G cannot be ordered by “polymerase ribozyme fitness (log ratio)” value: ≤ -4.2 for the first, ≤ -4.2 for the second.

C10A U44A G88C A89G A115C G140U A142G and C10A U44G U56G C57U A66C C87U A106G A142U cannot be ordered by “polymerase ribozyme fitness (log ratio)” value: ≤ -4.2 for the first, ≤ -4.2 for the second.

C10A U45A A98G C123U G140A U144A A150G and C10A U45A C51U A106G G152U cannot be ordered by “polymerase ribozyme fitness (log ratio)” value: ≤ -4.2 for the first, ≤ -4.2 for the second.

C10A U45A U82G G84U C87G C95A and C10A U53A C85A C96G G100A U127C U146A cannot be ordered by “polymerase ribozyme fitness (log ratio)” value: ≤ -4.2 for the first, ≤ -4.2 for the second.

C10A U55A C85G and C10A U55G G83U A91C G136A cannot be ordered by “polymerase ribozyme fitness (log ratio)” value: ≤ -4.2 for the first, ≤ -4.2 for the second.

Going from C10A U78C U104C to C10G, the “polymerase ribozyme fitness (log ratio)” value rises from ≤ -4.2 to -2.78.

C10G A12C A20C A23U A28G A49C A91C U111G G141A and C10G A12C G94C U135G cannot be ordered by “polymerase ribozyme fitness (log ratio)” value: ≤ -4.2 for the first, ≤ -4.2 for the second.

C10G A12G A39G U53A C79A C87A C131U and C10G A12G C27G A49G G62C G67A G68U C93U cannot be ordered by “polymerase ribozyme fitness (log ratio)” value: ≤ -4.2 for the first, ≤ -4.2 for the second.

C10G A12U A16U A20C C54A and C10G A16C A26C A73U U101G C116A cannot be ordered by “polymerase ribozyme fitness (log ratio)” value: ≤ -4.2 for the first, ≤ -4.2 for the second.

C10G A16C A28U A49U C72A C99G A122U and C10G A16C A39C G74A G88U C129A A142C cannot be ordered by “polymerase ribozyme fitness (log ratio)” value: ≤ -4.2 for the first, ≤ -4.2 for the second.

C10G A16C C54G C76G A89U C93A A113G C116U and C10G A16G A17G A19U A23U G48A U53A A97G A98U U101G C149U cannot be ordered by “polymerase ribozyme fitness (log ratio)” value: ≤ -4.2 for the first, ≤ -4.2 for the second.

C10G A16G A21G U53C G70A A115U G133A and C10G A16G U56A G59U C87A cannot be ordered by “polymerase ribozyme fitness (log ratio)” value: ≤ -4.2 for the first, ≤ -4.2 for the second.

C10G A16U A17C A41C A106G and C10G A16U A60G C96G C108U G152A cannot be ordered by “polymerase ribozyme fitness (log ratio)” value: ≤ -4.2 for the first, ≤ -4.2 for the second.

C10G A16U A97U C105U A142U A147U and C10G A16U G143C cannot be ordered by “polymerase ribozyme fitness (log ratio)” value: ≤ -4.2 for the first, ≤ -4.2 for the second.

C10G A17C C27G A28C U31A G94A C125A A138U and C10G A17C G68C A115G cannot be ordered by “polymerase ribozyme fitness (log ratio)” value: ≤ -4.2 for the first, ≤ -4.2 for the second.
